Over roughly 33,000 sequences, “E-score (-0.5 to 0.5)” has its median near -0.053; the highest 2% begin near 0.37. Some of the results follow.
molecular target: Hap1 (UniProt P0CE41); experiment: PBM E-score (8-mer binding enrichment) (E-score (-0.5 to 0.5)); higher = stronger / more preferred TF binding; most listed sequences are background and not binding sites; settings: protein concentration: 200 nM; construct: GST-DNA-binding domain
Summary of the method: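 E-scores (a modified Wilcoxon-Mann-Whitney statistic) were assigned by the Universal PBM Analysis Suite to every ungapped eight-base word pooled with its reverse complement. The input came from universal all-10-mer Agilent arrays made double-stranded by primer extension and probed with GST-tagged yeast transcription factors at about 100-200 nM. Fluorescent anti-GST detected bound protein, and masliner normalised the scans.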

Chain of UniProt P0CE41 (P0CE41 whole entry, the tested form may be a part): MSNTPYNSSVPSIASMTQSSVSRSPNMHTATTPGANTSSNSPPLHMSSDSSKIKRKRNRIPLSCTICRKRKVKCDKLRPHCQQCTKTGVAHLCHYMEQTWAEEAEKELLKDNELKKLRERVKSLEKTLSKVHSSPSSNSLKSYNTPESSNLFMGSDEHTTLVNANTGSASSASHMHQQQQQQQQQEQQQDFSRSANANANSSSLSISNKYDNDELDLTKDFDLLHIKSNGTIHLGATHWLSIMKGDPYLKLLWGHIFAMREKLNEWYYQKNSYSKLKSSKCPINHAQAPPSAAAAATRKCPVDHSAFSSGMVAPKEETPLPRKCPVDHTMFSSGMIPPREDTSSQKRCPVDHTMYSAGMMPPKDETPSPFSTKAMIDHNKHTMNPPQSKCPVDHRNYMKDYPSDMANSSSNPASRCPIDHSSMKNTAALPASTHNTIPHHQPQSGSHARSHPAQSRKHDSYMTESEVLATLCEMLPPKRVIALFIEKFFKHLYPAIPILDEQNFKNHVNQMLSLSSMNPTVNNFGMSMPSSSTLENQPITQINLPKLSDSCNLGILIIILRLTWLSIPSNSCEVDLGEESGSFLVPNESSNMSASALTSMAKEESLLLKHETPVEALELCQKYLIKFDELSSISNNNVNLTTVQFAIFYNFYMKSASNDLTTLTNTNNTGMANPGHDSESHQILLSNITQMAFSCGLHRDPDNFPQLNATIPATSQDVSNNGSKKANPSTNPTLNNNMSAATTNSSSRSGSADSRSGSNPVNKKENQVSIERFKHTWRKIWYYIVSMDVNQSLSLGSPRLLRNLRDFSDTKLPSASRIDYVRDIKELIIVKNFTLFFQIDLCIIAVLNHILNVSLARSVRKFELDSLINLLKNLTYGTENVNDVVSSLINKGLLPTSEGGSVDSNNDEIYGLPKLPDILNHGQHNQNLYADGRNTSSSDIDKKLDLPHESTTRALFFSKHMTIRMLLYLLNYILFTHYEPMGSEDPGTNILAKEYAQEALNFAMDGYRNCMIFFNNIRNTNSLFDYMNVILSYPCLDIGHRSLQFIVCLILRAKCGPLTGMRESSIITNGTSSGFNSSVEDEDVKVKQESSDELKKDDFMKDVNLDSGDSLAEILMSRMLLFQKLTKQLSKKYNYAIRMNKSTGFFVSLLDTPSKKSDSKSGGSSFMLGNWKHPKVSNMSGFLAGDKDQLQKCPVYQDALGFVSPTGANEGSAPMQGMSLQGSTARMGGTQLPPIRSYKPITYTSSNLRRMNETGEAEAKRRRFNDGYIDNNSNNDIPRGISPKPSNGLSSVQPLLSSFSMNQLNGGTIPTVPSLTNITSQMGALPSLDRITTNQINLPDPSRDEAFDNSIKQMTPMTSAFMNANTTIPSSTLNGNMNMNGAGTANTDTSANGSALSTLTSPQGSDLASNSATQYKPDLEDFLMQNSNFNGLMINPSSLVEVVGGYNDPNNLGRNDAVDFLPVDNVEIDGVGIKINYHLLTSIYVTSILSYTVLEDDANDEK

| Sequence | PBM E-score |
| --- | --- |
| GACCATCC | 0.024 |
| AGCACTAA | -0.168 |
| AGGTAGGC | -0.0915 |
| CACGTCGA | -0.183 |
| CATTGAGG | -0.206 |
| CCTTGGTA | -0.0146 |
| AGTTCTCC | 0.0689 |
| CTAAATCC | 0.386 |
| GCTTGTAA | -0.0451 |
| ATCCATGG | -0.00375 |
| CGGGATTC | 0.292 |
| AACGCTAA | -0.301 |
| CTTTGGTC | 0.102 |
| ATGTTTCA | -0.21 |
| GAAGGGAC | -0.136 |
| AAGACCAT | -0.167 |
| CCGGGACC | 0.35 |
| CGTATATA | -0.0266 |
| CTCACAAG | -0.217 |
| GAGATCAA | 0.0281 |
| AAGCTGAT | 0.0128 |
| CCTATAGA | -0.198 |
| CCCCGAAG | 0.311 |
| ACAAGTAC | -0.0629 |
| CACAGCAC | -0.143 |

| Sequence | PBM E-score |
| --- | --- |
| GGCTACAC | -0.292 |
| AATTTTCG | 0.153 |
| AGGACAAG | -0.191 |
| GGATCAAA | 0.0717 |
| AAAGACGA | -0.199 |
| GGATCGCC | 0.0272 |
| GACAGGTA | -0.0971 |
| AGGGAGAG | -0.332 |
| ACATCGGT | 0.332 |
| AAGAGCAA | -0.111 |
| CCCATAGA | -0.244 |
| CGCTAAAA | 0.0758 |
| GTGCGCAC | 0.197 |
| ACCGCCAG | 0.0985 |
| AAGTGACG | 0.0634 |
| GAAAGTAA | -0.014 |
| CTTGACCC | -0.0231 |
| AGATCAGG | -0.113 |
| GTTCTATA | -0.15 |
| CTTCATGC | -0.0499 |
| AGCGTCAC | -0.0748 |
| AATGACAT | -0.0522 |
| TAAAGTAA | -0.194 |
| ACCTCAAG | -0.18 |
| CATTGAAC | -0.0972 |

| Sequence | PBM E-score |
| --- | --- |
| GATATTCC | 0.241 |
| GGCGCGTA | 0.0722 |
| CCCCCCTA | -0.167 |
| CGCATATA | 0.0759 |
| TATGCACA | -0.144 |
| TGGGATAA | -0.0448 |
| ACTTTACC | 0.00924 |
| TCCTAGGA | -0.187 |
| ATGATTCC | 0.0894 |
| GAGTCGAA | -0.00726 |
| CTTCAGGA | -0.0903 |
| AGTCAAAA | -0.176 |
| CCAGCATA | -0.259 |
| ACACTTCA | -0.0611 |
| CCTGATAG | -0.208 |
| ATCGGTCC | 0.374 |
| AGAGCTCG | 0.0657 |
| AGGCTTGC | -0.169 |
| GTCTCGGA | 0.358 |
| CTGCGGAC | 0.321 |
| CTAGTTAA | -0.183 |
| AACTCGGC | 0.316 |
| GGGTCCAC | 0.046 |
| ACTGCAGA | -0.18 |
| ACCACAGC | -0.127 |

| Sequence | PBM E-score |
| --- | --- |
| CTGGAAAA | -0.119 |
| TACTAAGA | 0.0084 |
| CGACAGAG | -0.102 |
| AAGACTGG | -0.0967 |
| CGAGTCCG | 0.345 |
| CCTCGTCG | 0.145 |
| CAGGGGTC | -0.213 |
| TGGAGCCA | -0.23 |
| AGATAGGC | -0.0855 |
| AGCACGGG | 0.0369 |
| CATACCTA | -0.117 |
| ACGTGCCG | -0.0134 |
| CAATAGAG | -0.152 |
| GGAGCAGA | 0.0389 |
| AGAAGGTC | -0.212 |
| GAGGTGGA | 0.0581 |
| GCCGAGGA | 0.294 |
| ACCGAAGG | 0.285 |
| CGCGTAGA | 0.0333 |
| AGAAGTAT | -0.0923 |
| TCGTGACA | -0.0639 |
| CCCCCGGG | 0.324 |
| ACCCTTCA | -0.115 |
| CCTTATAG | -0.163 |
| TAGATTGA | 0.0635 |

| Sequence | PBM E-score |
| --- | --- |
| CCATATCG | 0.318 |
| ACTAAGCC | 0.094 |
| GAAACAGA | -0.119 |
| TACCCACA | -0.0535 |
| TCTCCCCA | -0.00501 |
| ATGCCGGA | 0.4 |
| GGCCGGTA | 0.344 |
| TAAGGGTA | -0.165 |
| CAATAACC | 0.114 |
| AACTACTT | -0.158 |
| CAAGCGGG | 0.191 |
| GGGGTCAC | -0.116 |
| AGAAATTA | 0.0509 |
| AGAGGAGA | -0.242 |
| CAACGAAC | -0.0321 |
| CTGCCGGC | 0.322 |
| GTGGAACA | -0.0504 |
| CTACCTAC | -0.0262 |
| CACAGGTA | -0.309 |
| ATTTCCGG | 0.459 |
| ATCTTCAG | -0.0499 |
| GTGTGGCA | -0.107 |
| AAATTGGT | 0.117 |
| CACCTTGG | -0.0199 |
| CTGCCGGA | 0.286 |

| Sequence | PBM E-score |
| --- | --- |
| GCAGGCTA | -0.169 |
| ACGTGGGC | -0.204 |
| ACTGAGAC | -0.277 |
| ATGGCTTC | -0.236 |
| ATTACGCC | -0.0918 |
| ACGCCGAC | 0.299 |
| AAATATCC | 0.22 |
| TCGGTTAA | 0.363 |
| CGGGTGGA | 0.31 |
| CTGCGAGC | 0.111 |
| AACCGAAT | 0.301 |
| ATCTGTCA | -0.0601 |
| CTCGATTC | -0.17 |
| GCAAGTAA | 0.0581 |
| CCGGCTCA | 0.312 |
| ATGCCGAG | 0.285 |
| ATTCCAAT | -0.188 |
| AAGGCGCG | -0.0965 |
| ATGCAATC | -0.113 |
| ATGGACTA | -0.0822 |
| CGTATGAA | -0.0342 |
| CTTCTTTA | 0.0253 |
| CACACGAA | -0.179 |
| AAACCCGC | 0.335 |
| TGGTTACA | -0.173 |

| Sequence | PBM E-score |
| --- | --- |
| ATACCTTC | -0.0671 |
| ACCAGAAG | -0.297 |
| ACAGACTA | -0.246 |
| GTAAATTA | -0.0234 |
| CAGGCCGC | -0.0693 |
| ACCTTCAG | -0.243 |
| CACGCTCC | -0.11 |
| CAGATATA | -0.0944 |
| CGAATCCG | 0.208 |
| GAAGTCAA | -0.0685 |
| AGCCTTTC | -0.0369 |
| ATTCAACA | -0.0848 |
| CCTTTAAC | 0.00377 |
| AATCCTTA | -0.203 |
| ATTCGCGA | 0.0217 |
| CCCCCCCG | -0.203 |
| AAAAGCCT | -0.221 |
| ATAGTCAT | -0.106 |
| ATGTGGCG | 0.00551 |
| GCCCTCGC | -0.0401 |
| GTGTATAA | -0.311 |
| CCCGGGCC | 0.387 |
| CCGACTGA | 0.167 |
| CCGACGCC | 0.303 |
| AATAGGGT | -0.143 |

| Sequence | PBM E-score |
| --- | --- |
| CACACTCA | -0.139 |
| AGCCTCCC | -0.194 |
| ATACACTA | -0.115 |
| ACACAAAG | -0.193 |
| CAAGTATG | -0.187 |
| TCGAGCGA | 0.105 |
| CAAATCAA | -0.253 |
| CCGCACAC | 0.126 |
| AGATCGGA | 0.376 |
| CCTGATTA | 0.114 |
| AATTGTCC | 0.101 |
| ACAGTACA | -0.00621 |
| AGACAGTG | -0.0768 |
| AGACTTTA | -0.201 |
| AGCACAGA | -0.079 |
| GAAATCTA | 0.114 |
| ATGTCTGG | 0.0302 |
| AGAATTCT | 0.108 |
| CCTGTCGC | -0.0985 |
| AGGGAATG | -0.197 |
| CCTTTTTC | -0.0545 |
| GTAGTTTA | 0.0265 |
| GAATAGCA | -0.099 |
| GAAACGAC | -0.037 |
| AAAAAAAC | -0.0967 |

| Sequence | PBM E-score |
| --- | --- |
| ACCCCGTA | 0.0631 |
| CAAGGACG | -0.219 |
| ACCTAACA | 0.0797 |
| GCTGCACA | -0.164 |
| ACTTGAGG | -0.147 |
| CGCCGGCA | 0.349 |
| CAAAGGCC | -0.00112 |
| ACGGGCCA | 0.226 |
| GACTGTGC | -0.247 |
| CCCCTGCG | -0.134 |
| CCGACCCA | 0.348 |
| AACAGTAC | -0.075 |
| CTTGAGGC | -0.0726 |
| TTATGCAA | -0.287 |
| ATTGTACA | -0.0711 |
| AAGTACGC | -0.0917 |
| ACGCTGGC | -0.0746 |
| GTGACAGA | -0.0988 |
| ACTGAACG | -0.195 |
